For 31 molecules, binding signal results are on record in publication PMC9911399, “Two distinct binding modes provide the RNA-binding protein RbFox with extraordinary sequence specificity”.

Changes are numbered by the printed parent chain; changes in the protein carry UniProt numbers. The list shows a part of the results.

The labels stand for the following.
T1: RBFOX1 RRM (Homo sapiens, UniProt Q9NWB1 109-208)
T1 sequence: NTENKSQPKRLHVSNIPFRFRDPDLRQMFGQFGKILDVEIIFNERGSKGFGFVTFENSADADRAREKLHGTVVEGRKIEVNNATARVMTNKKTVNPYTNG

B1: AGCUAUC (DNA:RNA)
RNA: GGGAGACCGGAAUUCAGAUUGUCCAGCUAUCUUAAAUCCCGUCGUAGCCACCA
DNA 1: CAATCTGAATTCCGGTCTCCC
DNA 2: TGGTGGCTACGACGGGATT
B2: GUAAACA (DNA:RNA)
RNA: B1 RNA with A25G, G26U, C27A, U28A, U30C, C31A
DNA 1: CAATCTGAATTCCGGTCTCCC
DNA 2: TGGTGGCTACGACGGGATT
B3: UUAUAGC (DNA:RNA)
RNA: B1 RNA with A25U, G26U, C27A, U30G
DNA 1: CAATCTGAATTCCGGTCTCCC
DNA 2: TGGTGGCTACGACGGGATT
B4: UGGAGUC (DNA:RNA)
RNA: B1 RNA with A25U, C27G, U28A, A29G
DNA 1: CAATCTGAATTCCGGTCTCCC
DNA 2: TGGTGGCTACGACGGGATT
B5: CAUAAAU (DNA:RNA)
RNA: B1 RNA with A25C, G26A, C27U, U28A, U30A, C31U
DNA 1: CAATCTGAATTCCGGTCTCCC
DNA 2: TGGTGGCTACGACGGGATT
B6: CAGUUAG (DNA:RNA)
RNA: B1 RNA with A25C, G26A, C27G, A29U, U30A, C31G
DNA 1: CAATCTGAATTCCGGTCTCCC
DNA 2: TGGTGGCTACGACGGGATT
B7: UGAGGUU (DNA:RNA)
RNA: B1 RNA with A25U, C27A, U28G, A29G, C31U
DNA 1: CAATCTGAATTCCGGTCTCCC
DNA 2: TGGTGGCTACGACGGGATT
B8: GAAGCGA (DNA:RNA)
RNA: GGGAGACCGGAAUUCAGAUUGUCCGAAGCGAUUAAAUCCCGUCGUAGCCACCA
DNA 1: CAATCTGAATTCCGGTCTCCC
DNA 2: TGGTGGCTACGACGGGATT
B9: CUGUUAA (DNA:RNA)
RNA: B1 RNA with A25C, G26U, C27G, A29U, U30A, C31A
DNA 1: CAATCTGAATTCCGGTCTCCC
DNA 2: TGGTGGCTACGACGGGATT
B10: CCAUCUC (DNA:RNA)
RNA: B1 RNA with A25C, G26C, C27A, A29C
DNA 1: CAATCTGAATTCCGGTCTCCC
DNA 2: TGGTGGCTACGACGGGATT
B11: AGUCAAU (DNA:RNA)
RNA: B1 RNA with C27U, U28C, U30A, C31U
DNA 1: CAATCTGAATTCCGGTCTCCC
DNA 2: TGGTGGCTACGACGGGATT
B12: CGGGCCU (DNA:RNA)
RNA: B8 RNA with G25C, A26G, A27G, G30C, A31U
DNA 1: CAATCTGAATTCCGGTCTCCC
DNA 2: TGGTGGCTACGACGGGATT
B13: UUUCUAU (DNA:RNA)
RNA: GGGAGACCGGAAUUCAGAUUGUCCUUUCUAUUUAAAUCCCGUCGUAGCCACCA
DNA 1: CAATCTGAATTCCGGTCTCCC
DNA 2: TGGTGGCTACGACGGGATT
B14: CAGCCGC (DNA:RNA)
RNA: B8 RNA with G25C, A27G, G28C, A31C
DNA 1: CAATCTGAATTCCGGTCTCCC
DNA 2: TGGTGGCTACGACGGGATT
B15: AGUUGCC (DNA:RNA)
RNA: B1 RNA with C27U, A29G, U30C
DNA 1: CAATCTGAATTCCGGTCTCCC
DNA 2: TGGTGGCTACGACGGGATT
B16: CUAUUCU (DNA:RNA)
RNA: B13 RNA with U25C, U27A, C28U, A30C
DNA 1: CAATCTGAATTCCGGTCTCCC
DNA 2: TGGTGGCTACGACGGGATT
B17: GUUCCUA (DNA:RNA)
RNA: B8 RNA with A26U, A27U, G28C, G30U
DNA 1: CAATCTGAATTCCGGTCTCCC
DNA 2: TGGTGGCTACGACGGGATT
B18: AACGCCA (DNA:RNA)
RNA: B8 RNA with G25A, A27C, G30C
DNA 1: CAATCTGAATTCCGGTCTCCC
DNA 2: TGGTGGCTACGACGGGATT
B19: AAUCGGU (DNA:RNA)
RNA: B13 RNA with U25A, U26A, U29G, A30G
DNA 1: CAATCTGAATTCCGGTCTCCC
DNA 2: TGGTGGCTACGACGGGATT
B20: AGGUGUU (DNA:RNA)
RNA: B1 RNA with C27G, A29G, C31U
DNA 1: CAATCTGAATTCCGGTCTCCC
DNA 2: TGGTGGCTACGACGGGATT
B21: GUAGGAC (DNA:RNA)
RNA: B8 RNA with A26U, C29G, G30A, A31C
DNA 1: CAATCTGAATTCCGGTCTCCC
DNA 2: TGGTGGCTACGACGGGATT
B22: AAUUGCG (DNA:RNA)
RNA: B1 RNA with G26A, C27U, A29G, U30C, C31G
DNA 1: CAATCTGAATTCCGGTCTCCC
DNA 2: TGGTGGCTACGACGGGATT
B23: GCUUAAU (DNA:RNA)
RNA: B13 RNA with U25G, U26C, C28U, U29A
DNA 1: CAATCTGAATTCCGGTCTCCC
DNA 2: TGGTGGCTACGACGGGATT
B24: ACGUUGG (DNA:RNA)
RNA: B1 RNA with G26C, C27G, A29U, U30G, C31G
DNA 1: CAATCTGAATTCCGGTCTCCC
DNA 2: TGGTGGCTACGACGGGATT
B25: AACAUAA (DNA:RNA)
RNA: B1 RNA with G26A, U28A, A29U, U30A, C31A
DNA 1: CAATCTGAATTCCGGTCTCCC
DNA 2: TGGTGGCTACGACGGGATT
B26: GAGGAUU (DNA:RNA)
RNA: B8 RNA with A27G, C29A, G30U, A31U
DNA 1: CAATCTGAATTCCGGTCTCCC
DNA 2: TGGTGGCTACGACGGGATT
B27: UAUCACG (DNA:RNA)
RNA: B13 RNA with U26A, U29A, A30C, U31G
DNA 1: CAATCTGAATTCCGGTCTCCC
DNA 2: TGGTGGCTACGACGGGATT
B28: GUAUUCG (DNA:RNA)
RNA: B8 RNA with A26U, G28U, C29U, G30C, A31G
DNA 1: CAATCTGAATTCCGGTCTCCC
DNA 2: TGGTGGCTACGACGGGATT
B29: CCAAUCC (DNA:RNA)
RNA: B1 RNA with A25C, G26C, C27A, U28A, A29U, U30C
DNA 1: CAATCTGAATTCCGGTCTCCC
DNA 2: TGGTGGCTACGACGGGATT
B30: CAAAACC (DNA:RNA)
RNA: B1 RNA with A25C, G26A, C27A, U28A, U30C
DNA 1: CAATCTGAATTCCGGTCTCCC
DNA 2: TGGTGGCTACGACGGGATT
B31: UAACUCC (DNA:RNA)
RNA: B13 RNA with U26A, U27A, A30C, U31C
DNA 1: CAATCTGAATTCCGGTCTCCC
DNA 2: TGGTGGCTACGACGGGATT

The target in the experiment is T1, RBFOX1 RRM. Kind of experiment: EMSA; HiTS-Eq, 1 nM pool, 10 min; buffer printed only for the single-RNA assays: 10 mM Tris pH 7.5, 150 mM NaCl, 3.4 mM EDTA, 0.001% NP-40, 30 C. Particulars: tags: His6 N-terminal (pET28a); label: 5' 32P. A digest of the protocol:
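Purified RbFox RRM (wild type or mutant) was equilibrated for 10 min in 50 µL with 1 nM of a 5′-radiolabelled pool of RNA with 7 randomized nucleotides, its flanks annealed to DNA oligonucleotides, across increasing protein concentrations. Free RNA was separated by 8% native PAGE, excised, reverse-transcribed, PCR-barcoded and sequenced on an Illumina HiSeq 2500. Relative association constants came from read-count changes of each variant against the control reaction, normalised to the cognate motif.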
In general terms: Mobility shift assays separate free from complexed probe on a gel.
B1: the binding signal was 0.00768 KA relative to UGCAUGU.

On to B2, for which the binding signal is 0.00248 KA relative to UGCAUGU.

In the case of B3, the binding signal was 0.00825 KA relative to UGCAUGU.

Turning to B4, the binding signal is 0.0349 KA relative to UGCAUGU.

Regarding B5, the binding signal is 0.000845 KA relative to UGCAUGU.

For the molecule B6, the binding signal was 0.0113 KA relative to UGCAUGU.

As to B7, the binding signal is 0.0165 KA relative to UGCAUGU.

Consider B8, for which the binding signal is 0.0104 KA relative to UGCAUGU.

With B9, the binding signal is 0.00893 KA relative to UGCAUGU.

With B10, the binding signal is 0.00486 KA relative to UGCAUGU.

Take B11: the binding signal was 0.00434 KA relative to UGCAUGU.

With B12, the binding signal is 0.0242 KA relative to UGCAUGU.

Consider B13, for which the binding signal is 0.00863 KA relative to UGCAUGU.

Regarding B14, the binding signal was 0.00702 KA relative to UGCAUGU.

As to B15, the binding signal was 0.011 KA relative to UGCAUGU.

Take B16: the binding signal was 0.00535 KA relative to UGCAUGU.

Consider B17, for which the binding signal was 0.00878 KA relative to UGCAUGU.

Consider B18, for which the binding signal was 0.00148 KA relative to UGCAUGU.

With B19, the binding signal was 0.00643 KA relative to UGCAUGU.

As for B20, the binding signal is 0.0135 KA relative to UGCAUGU.

As for B21, the binding signal is 0.00321 KA relative to UGCAUGU.

Consider B22, for which the binding signal is 0.011 KA relative to UGCAUGU.

In the case of B23, the binding signal was 0.00513 KA relative to UGCAUGU.

On to B24, for which the binding signal is 0.0187 KA relative to UGCAUGU.

In the case of B25, the binding signal is 0.000651 KA relative to UGCAUGU.

On to B26, for which the binding signal is 0.0146 KA relative to UGCAUGU.

As to B27, the binding signal is 0.00833 KA relative to UGCAUGU.

Consider B28, for which the binding signal was 0.0103 KA relative to UGCAUGU.

For B29, the binding signal is 0.00106 KA relative to UGCAUGU.

As to B30, the binding signal is 0.000474 KA relative to UGCAUGU.

Regarding B31, the binding signal is 0.00402 KA relative to UGCAUGU.
